Results as given in PubChem BioAssay AID1865 (National Center for Advancing Translational Sciences (NCATS), 2009).
Hit rate of the full screen: of about 280,000 compounds, about 540 (0.19%) were called active. Inconclusive results (about 2%) are left out. The call rests on the fitted dose curve; in most records, active means well fitted activation curve with a large enough effect; inconclusive means small, poorly fitted or top-dose-only effect; inactive means flat fitted curve, though single readings scatter. This is a selection; strong and weak results do not stand in their true shares. The source holds several records for some structures; these can differ, active in one and inactive in another.

experiment: Quantitative High-Throughput Screen for Regulators of Epigenetic Control; conditions: murine LDR cells, GFP reporter derepression, 30 h; series mostly up to 53.9 µM; GFP activation: at the top concentration; further: nearly all actives have a fitted effect of over 60% in size; on GFP activation: % of control where 0% means no effect
Text: NIH Molecular Libraries Screening Centers Network [MLPCN] NIH Chemical Genomics Center [NCGC] MLSCN Grant: 1 X01 MH079860-01 Assay Provider: Elisabeth D. Martinez, University of Texas SW Medical Center NCGC Assay Overview: The Locus Derepression (LDR) assay detects the derepression or induction of a GFP reporter that is stably integrated in a genomic region of murine cells that is presumably silenced. Transcription of the GFP reporter is controlled by a CMV promoter, which normally is constitutively active. However, this cell line, termed LDR, was selected for lack of constitutive production of GFP. GFP production can be induced by incubating the cells with histone deacetylase or DNA methyltransferase inhibitors (Martinez et al., 2006). Compounds that derepress or induce this reporter locus are identified by enumerating GFP positive cells using a laser-scanning microplate cytometer (Auld et al., 2006). This assay was screened against the MLSMR earlier (AID 597; (Johnson et al., 2008) and has been rescreened here against the expanded collection.
NCGC Assay Protocol Summary: Three hundred LDR cells in 5 uL per well were dispensed into black, clear-bottom 1536-well plates. Twenty-three nL compound was transferred to the assay plate and cells were incubated 30 hours at 37 C. Medium was removed, cells were washed two times with PBS, and GFP-positive cells were enumerated as fluorescent objects between the sizes of 20 to 120 um width and depth using an Acumen Explorer. References Auld, DS, Johnson, RL, Zhang, YQ, Veith, H, Jadhav, A, Yasgar, A, Simeonov, A, Zheng, W, Martinez, ED, Westwick, JK, Austin, CP, Inglese, J (2006). Fluorescent protein-based cellular assays analyzed by laser-scanning microplate cytometry in 1536-well plate format. Methods Enzymol 414: 566-89. Johnson, RL, Huang, W, Jadhav, A, Austin, CP, Inglese, J, Martinez, ED (2008). A quantitative high-throughput screen identifies potential epigenetic modulators of gene expression. Anal Biochem 375: 237-48. Martinez, ED, Dull, AB, Beutler, JA, Hager, GL (2006). High-content fluorescence-based screening for epigenetic modulators. Methods Enzymol 414: 21-36.
Potency means the concentration at half of the fitted maximal effect.

SMILES | GFP activation | Potency
O=C(O)c1ccccc1-c1c2cc(Br)c(=O)cc-2oc2[c]([Hg])c(O)c(Br)cc12 | inactive: 6.4% | –
N[C@@H](Cn1oc(=O)[nH]c1=O)C(=O)O | – | inactive
CCCCC/C=C\C/C=C\C/C=C\C/C=C\CCCC(=O)NCc1ccc(O)c(OC)c1 | inactive: 11.4% | –
COc1cc(C[C@@H](C)N)c(OC)cc1I | inactive: 0.99% | –
CC(C)OCCCNC(=O)c1c(N)n(CC2CCCO2)c2nc3ccccc3nc12 (stereo not given) | inactive: -19.9% | –
CCN(CCCNS(=O)(=O)c1ccc2c(c1)oc(=O)n2C)c1cccc(C)c1 | inactive: 0% | –
CC1=CC(=O)C2=C(C)CC(O)C3C(C)C(=O)OC3C12 (stereo not given) | inactive: -7.55% | –
C=C(C)c1cc2cc(C(C)=O)c(O)cc2o1 | inactive: 0% | –
CC1CC[C@@]2(OC1)OC1C(O)C3C4CC[C@H]5CC(O[C@@H]6O[C@@H](CO)[C@H](OC7OC(CO)C(O)C(OC8OCC(O)C(O)[C@H]8O)[C@@H]7O[C@@H]7OC(CO)[C@H](O)[C@@H](O[C@@H]8OC(CO)C(O)C(O)C8O)C7O)C(O)C6O)C(O)C[C@]5(C)C4CC[C@]3(C)C1C2C (stereo not given in full) | inactive: -1.33% | –
CC(C)[C@@]1(NC(=O)[C@@H]2C[C@H]3c4cccc5[nH]cc(c45)C[C@@H]3N(C)C2)O[C@@]2(O)[C@H]3CCCN3C(=O)[C@H](Cc3ccccc3)N2C1=O | – | inactive
O=C1CCCC2C3CCCN4CCCC(CN12)C34 (stereo not given) | inactive: -0.962% | –
CC(C)[C@@]1(NC(=O)[C@@H]2C[C@@H]3c4cccc5[nH]cc(c45)C[C@H]3N(C)C2)O[C@@]2(O)[C@@H]3CCCN3C(=O)[C@H](Cc3ccccc3)N2C1=O | inactive: -2.91% | –
COC[C@H]1OC(=O)c2coc3c2[C@@]1(C)C1=C(C3=O)C2CCC(=O)[C@@]2(C)C[C@H]1OC(C)=O (stereo not given in full) | – | inactive
N#CC(C#N)=Cc1cc(O)c(O)c([N+](=O)[O-])c1 | – | active: 17.8 µM
Cc1ccc(/C=C2/C(=O)NC(=O)N(CCc3ccc(F)cc3)C2=O)o1 | inactive: -1.09% | –
CCCN1CCc2cc(O)cc3c2C1Cc1ccc(O)c(O)c1-3 (stereo not given) | inactive: 1.05% | –
N#CC(C#N)=Cc1ccc(O)c(O)c1 | – | inactive
Oc1cc2c(cc1O)[C@H]1c3ccccc3CN[C@H]1CC2 | inactive: -0.203% | –
CC1=C(O)C(=O)[C@@H]2O[C@@H]2C1=O | inactive: 1.05% | –
COc1cc(CC(C)N)c(OC)cc1I (stereo not given) | inactive: -0.144% | –
CC(C)c1ccc(N2C(=O)NC(=O)/C(=C/C=C/c3ccco3)C2=O)cc1 | inactive: 0.935% | –
CC(C)[C@@]1(NC(=O)[C@@H]2C[C@H]3c4cccc5[nH]cc(c45)C[C@@H]3N(C)C2)O[C@]2(O)[C@H]3CCCN3C(=O)[C@H](Cc3ccccc3)N2C1=O | inactive: -0.99% [at 16.9 µM] | –
CCCN1CCc2cccc3c2C1Cc1ccc(O)c(O)c1-3 (stereo not given) | inactive: -0.108% | –
CC(C)c1ccc(N2C(=O)NC(=O)/C(=C\c3cnc(-c4ccccc4)nc3)C2=O)cc1 | inactive: 2.42% | –
COc1ccc(C[C@@H]2NC[C@H](O)[C@@H]2OC(C)=O)cc1 | inactive: 1.37% [at 16.9 µM] | –
CCCCNC(=O)Nc1ccc(C(O)(C(=O)OCC)C(F)(F)F)cc1 (stereo not given) | inactive: -2.88% | –
CC[C@@H]1CN2CCc3cc(OC)c(OC)cc3[C@H]2C[C@@H]1C[C@H]1NCCc2cc(OC)c(OC)cc21 | inactive: -0.295% [at 16.9 µM] | –
O=C1NC(=O)N(Cc2ccccc2)C(=O)/C1=C\C=C\c1ccco1 | inactive: 8.51% | –
NC1CCc2cc(O)c(O)cc2C1 (stereo not given) | – | inactive
C/C(O)=C(\C#N)C(=O)Nc1cc(Br)ccc1Br | – | inactive
